We go through 19 molecules from the supplement of paper PMC12632987.

B1: GBRAP_128_3360 (protein)
chain: LDEELLAKAKELVEAMKTADVEETKALTKEVIALMAEADPETAEAIAEIIIEALPEFSAEKLEAIADAIREAMPKADPYKANLLAEVEVEALNEAVEKEE
B2: GBRAP_14_3768 (protein)
chain: MEEIEKILKEASERIIELLSELAPEKAEEFEKAVKEITEEAIKRIRETGKAEETMEEAREELIARIDEILKGYPAEVQAQARAIVDVELGQAILEIDELL
B3: GBRAP_160_4820 (protein)
chain: EEKVKKVFELIDEYFEEALELVEGETAEQRAVVVAVVGGQLLLDLSEDESVSDELEDKVDEIIDELVEEILANPDLTDEELRELIEKAAEEIKEAAKEDF
B4: GBRAP_64_6486 (protein)
chain: EEEIKKLHEETLKQAKKLVELLKDSSEELQKQAKEVLELIEKSKEASLEEAAKLLAEAAKLLNELLKSPELTEEQKDQVAETLDLVSELLWLVVEKELEK
B5: GBRAP_160_4178 (protein)
chain: SEKIEEAEEEIEEIFEEAYEMMKGQTAEERAAIVDVAFGEIILYLEEKGLLTDETEAKIDEIRDETVSYILANPDLTDEELRELLEEAAEEIIEALRENS
B6: GBRAP_160_4340 (protein)
chain: SEEIEKLIKYINEEFERTKKLIEGETIEQRKVIIDGTFGEIAMELAEDESVSDETVDKVLEIRDETIAYLDENPDLTEEEIKKLIDEAREKIIEILKESE
B7: GBRAP_95_7046 (protein)
chain: EDDQLAFDSLAEVLETYLDLGDEERAERAARELVRLWKEGGFLPVPSSLSPESAVLVVRAAAEELDPESTARLKARVVEASGDPALAERLDAVIAEVRAA
B8: GBRAP_52_6008 (protein)
chain: MREEIREVLEKALELVKEGKEEEAYKLLLEKVKSLNEEEVELLVEELAELAAEAPLEDFDAVWKLAELAAEALEEAGKDEALADELLARVAAALYEREQR
B9: GBRAP_128_3169 (protein)
chain: MSEEIVEEVKKLVEEMLKANKEEFKKLAEKIVEIIGKADLETAEKIVEIIIENLPKFSEEKLEILIDVIRKQMPKFTPEKQELLAEVAVEAGERILELEE
B10: GBRAP_9_7142 (protein)
chain: MKEVIDKIIELAEEAKEDALAIAPEEYKPLVKAKYDEFIDALKALKADPNTTLEEIRKTSEEQIEKIKKTFKAELPADLAKQLEAILLTLEEEIEEILES
B11: GBRAP_150_3923 (protein)
chain: DIEELETIVSTALDLALGIKDGEYSLVPAAIKLAKDALEESEELPEELKEKLKKLLTEAIKKLEAIKAGAPEEERKKLVKEAVELMEEALKLVEEYKKKQ
B12: GBRAP_11_2938 (protein)
chain: SMEEIEKATKKLVEAAEEGAAYLDAHPDETRLPKELLEKLEKAVKELQKVVNEEEAEELKEELELLLELIEEGAPAAEIAAALRVLAGEALLILEELEEK
B13: GBRAP_52_5905 (protein)
chain: MRARLRADLEEIIAAVRAGDLEAARAKARELAETYDDEELELAAEELAALVLEAPREDLPAWWRTAEIIAEALEEAGRDEVLADLVLSRTAAAIHEVLQR
B14: GBRAP_78_6615 (protein)
chain: KKKEEILKKLDEAAELLREIRKKQPELADEAADAETLVGTAIYMLDTEEESLEELKEQVEEALKALKELKKKLKDAPKEVQKLAEEAEKLVQEALKLLKE
B15: GBRAP_160_4145 (protein)
chain: SEEIEELIKEIREIAEEALEMIEGESPEEAKTIARVAFGEIVMLVDSNEAVSEETEEKVGEIAREAEARLDANPDLSVEEVKELLREATEKVVKVLEEEK
B16: GBRAP_78_6604 (protein)
chain: EVEELIDKAIEHLDKASKLTKELNEEDQNELQDLIVEALSELLESLENGPNLENIKEAIKYLEEALKKVKELNKEEAKKIEEELKKAIEYLKKAEELLKK
B17: GBRAP_166_4985 (protein)
chain: MQEEIVERARKEIEELAEQMKTANDEEQTELIIEIAEVIRKAKEEGVSDEKLLELVRHALELAKELGLNVKVVAGIIAEVSEFDEEMREKIDEIAEEVAA
B18: GBRAP_95_7029 (protein)
chain: EDDELAAASLVEVIETYLDLGDEEKARRAAEELVRLMVEEGFVPLPKGISVETAKLIVEEAYKILDEETFEKLFEVILSSLEKEEDKEKVKKYYEELKKE
B19: GBRAP_160_4396 (protein)
chain: SEKMEKLKKEIDEIFDEAEEMIEGESPEERKVIVRVMFGEVLLEVEENEEVSDELEDEFGELLDEYEKKAQEAVEKGLEELKEVLEEAREELNELIDKND

In all, about 4,500 sequences were measured (“median log2 fold change of GCK-ALFA target abundance (FLAG IP / Myc IP barcode read proportion)”: median about 0.078, lowest 2% from about -0.6 on). The list shows a part of the results.

Sequence of GABARAP, O95166 (O95166 whole entry, the tested form may be a part): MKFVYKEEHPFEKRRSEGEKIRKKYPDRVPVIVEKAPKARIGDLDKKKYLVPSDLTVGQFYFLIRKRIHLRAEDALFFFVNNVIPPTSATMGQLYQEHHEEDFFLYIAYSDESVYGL

The assay has as its target GABARAP, O95166. In words: median log2 fold change of GCK-ALFA target abundance (FLAG IP / Myc IP barcode read proportion) (log2 ratio); each designed protein is fused to an ALFA-tag nanobody in HEK293 cells to bring the named protein to FLAG-tagged glucokinase (GCK); Myc marks an untargeted standard; higher = target protein stabilised (more abundant). To be noted: target protein: 3xFLAG-MCP-GCK-ALFA reporter; HEK293 landing pad (RPLP). A digest of the protocol:
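Binders fused to an ALFA nanobody were recombined as a library into HEK293 landing-pad cells, which were induced with 2 μg mL^−1 doxycycline and then transfected to express a FLAG-tagged target and a Myc-tagged standard. After 48 h, circular RNA barcodes recovered by anti-FLAG and anti-Myc immunoprecipitation of lysates were reverse transcribed, amplified and sequenced. Each binder's target abundance is the median log2 ratio of FLAG to Myc barcode read proportions, from barcodes present at ≥10^−7 in both replicates, binders carrying ≥3 barcodes per replicate, a 10^−6 pseudocount and pooled replicates.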
Take B1: the “median log2 fold change” value is 0.0821.
To B2 belongs 0.235; to B3, -0.219; to B4, 0.19.
For the molecule B5, the “median log2 fold change” value is -0.598.
To B6 belongs -0.259; to B7, 0.184; to B8, -0.00364.
As to B9, the “median log2 fold change” value came to 0.0148.
B10: the “median log2 fold change” value turned out to be 0.159.
To B11 belongs 0.0166; to B12, -0.101.
To B13 belongs -0.658; to B14, 0.247; to B15, 0.248.
To B16 belongs 0.152; to B17, 0.257.
For B18, the “median log2 fold change” value was found to be 0.0288.
On to B19, for which the “median log2 fold change” value is -0.19.
